Measured values published in patent US20190345250A1, “ANTIBODY DRUG CONJUGATES” (NOVARTIS AG, priority 2013, published 2019).

Experiments:
human FGFR2 IIIc = molecular target: T1, human FGFR2 IIIc (Homo sapiens, UniProt P21802); assay: ELISA/FACS screening of panning outputs for specificity and cross-reactivity; format: binding; conditions: Uniprot Accession # P21802-1
T1 construct: residues 22-378-TAG; made in house

human FGFR2 IIIb = molecular target: T2, human FGFR2 IIIb (Homo sapiens, UniProt P21802); assay: as above; format: binding; conditions: Uniprot Accession # P21802-3
T2 construct: residues 22-378-TAG; made in house

B1: Antibody 11725 (antibody)
heavy: QVQLLESGGGLVQPGGSLRLSCAASGFTFNTYWLHWVRQAPGKGLEWVSVISSDSSSTYYADSVKGRFTISRDNSKNTLYLQMNSLRAEDTAVYYCARDSRLDYWGQGTLVTVSSASTKGPSVFPLAPSSKSTSGGTAALGCLVKDYFPEPVTVSWNSGALTSGVHTFPAVLQSSGLYSLSSVVTVPSSSLGTQTYICNVNHKPSNTKVDKRV[human IgG1 Fc cut from this listing]
light: DIELTQPPSVSVSPGQTASITCSGDSIGDTYVDWYQQKPGQAPVLVIYDDIDRPSGIPERFSGSNSGNTATLTISGTQAEDEADYYCYVYAWTGTSNVFGGGTKLTVLGQPKAAPSVTLFPPSSEELQANKATLVCLISDFYPGAVTVAWKADSSPVKAGVETTTPSKQSNNKYAASSYLSLTPEQWKSHRSYSCQVTHEGSTVEKTVAPTECS
binding to FGFR2 IIIc isoform (human FGFR2 IIIc): found to bind | binding to FGFR2 IIIb isoform (human FGFR2 IIIb): found to bind
